Counter-ions that a name gives are not always drawn. ± gives the standard deviation of the averaged measurements. Whole data set: some 3,100 compounds, median “mean cytoplasmic OPP incorporation (global translation) relative to DMSO” near 100, cut for the lowest 2% near 56. This is one part of the list.

This test concerns U2OS. Nature of the test: mean cytoplasmic OPP incorporation (global translation) relative to DMSO (% of DMSO); higher = more protein synthesis. The following applies: 10 µM; 24 h. The procedure:
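Primary image-based screen in U2OS cells: compounds at 10 uM for 24 h, then a 1 h o-propargyl-puromycin (OPP) pulse, click labelling, and high-throughput microscopy. Mean cytoplasmic OPP intensity and nuclei count were normalised to DMSO wells within each plate (DMSO = 100) and averaged over triplicate plates.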
For the molecule `C#C[C@]1(O)CC[C@H]2[C@@H]3CCC4=CC(=O)CC[C@]4(C)[C@H]3CC[C@@]21C` [Ethisterone], the “mean cytoplasmic OPP incorporation” value was 105 ± 8.1.
Turning to `CC(C)CC(N(C)C)C1(c2ccc(Cl)cc2)CCC1` (centres undefined) [Sibutramine HCl], the “mean cytoplasmic OPP incorporation” value amounted to 95.1.
With `C=CCN1CC[C@]23c4c5ccc(O)c4O[C@H]2/C(=N/NC(=O)c2ccccc2)CC[C@@]3(O)[C@H]1C5` [Naloxone benzoylhydrazone] the figure was 103; with `N[C@@H](Cn1oc(=O)[nH]c1=O)C(=O)O` [L-Quisqualic acid], 98.3; with `C[C@H](Cc1ccc(OCC(=O)O)cc1)NC[C@H](O)c1cccc(Cl)c1`, 99.
With `CC(=O)N(C)c1cccc(-c2ccnc3c(C(=O)c4cccs4)cnn23)c1` [Indiplon] the figure was 92.7; with `CC1(C)CC(O)CC(C)(C)N1[O]`, 110.
With `CC1(C)CC(O)CC(C)(C)N1[O]` [Tempol (4-Hydroxy-TEMPO)] the figure was 104; with `S=C(NC1CCCCC1)N1CCC(c2cnc[nH]2)CC1` [Thioperamide maleate], 105.
For the molecule `CN1[C@@H]2CC(O)C[C@H]1[C@@H]1O[C@@H]12` (some centres undefined) [Scopine], the “mean cytoplasmic OPP incorporation” value was 102.
On to `COc1ccc2c(c1)[C@]13CCCC[C@@H]1[C@H](C2)N(C)CC3` [Dextromethorphan hydrobromide monohydrate], for which the “mean cytoplasmic OPP incorporation” value worked out at 104.
The value for `Cc1cccc(C(C)c2c[nH]cn2)c1C` (centres undefined) [Medetomidine HCl] was 96.7.
For the molecule `Cc1cccc(C(C)c2c[nH]cn2)c1C` (centres undefined) [Medetomidine hydrochloride], the “mean cytoplasmic OPP incorporation” value is 96.3.
Take `CN(C(=O)Cc1ccc(Cl)c(Cl)c1)[C@H](CN1CCCC1)c1ccccc1` [ICI-199,441 hydrochloride]: the “mean cytoplasmic OPP incorporation” value is 111.
Take `COC[C@H]1OC(=O)c2coc3c2[C@@]1(C)C1=C(C3=O)[C@@H]2CCC(=O)[C@@]2(C)C[C@H]1OC(C)=O` [Wortmannin]: the “mean cytoplasmic OPP incorporation” value worked out at 104 ± 14.
The value for `Clc1cnc(Oc2ccc(Oc3ncc(Cl)cc3Cl)cc2)c(Cl)c1` was 117; that for `C=CC[C@]1(O)CC[C@H]2[C@@H]3CCC4=CC(=O)CCC4=C3C=C[C@@]21C` [Altrenogest] was 101; that for `CN1C(=O)[C@]23CC4=CC=C[C@H](O)[C@H]4N2C(=O)[C@@]1(CO)SS3` [Gliotoxin] was 33.6.
With `C=C1[C@@H]2CC[C@H]3[C@]4(C)C[C@H](O[C@@H]5O[C@H](CO)[C@@H](OS(=O)(=O)O)[C@H](OS(=O)(=O)O)[C@H]5OC(=O)CC(C)C)C[C@@H](C(=O)O)[C@H]4CC[C@]3(C2)[C@@H]1O` [Atractyloside potassium salt] the figure was 102.
With `CC(Cc1ccc(O)cc1)NCC(O)c1cc(O)cc(O)c1` (centres undefined) [Fenoterol hydrobromide] the figure was 95.5; with `C/C(=C\c1csc(C)n1)[C@@H]1C[C@@H]2O[C@]2(C)CCC[C@H](C)[C@H](O)[C@@H](C)C(=O)C(C)(C)[C@@H](O)CC(=O)O1` [Epothilone B (EPO906)], 92.3.
Consider `Cn1cnc(CCN)c1` [N _-Methylhistamine dihydrochloride], for which the “mean cytoplasmic OPP incorporation” value amounted to 100.
In the case of `CNCC(O)c1ccc(O)cc1` (racemic) [(+,-)-Synephrine], the “mean cytoplasmic OPP incorporation” value was 103.
Turning to `C[C@]12CC[C@@H](O)C[C@@H]1CC[C@@H]1[C@@H]2CC[C@]2(C)C(=O)CC[C@@H]12` [Androsterone], the “mean cytoplasmic OPP incorporation” value worked out at 97.1.
Regarding `CCCCCCC[n+]1ccc(-c2cc[n+](CCCCCCC)cc2)cc1` [DHBP dibromide], the “mean cytoplasmic OPP incorporation” value is 96.
The value for `CO[C@@H]1[C@H](OC(=O)NC(=O)CCl)CC[C@]2(CO2)[C@H]1[C@@]1(C)O[C@@H]1CC=C(C)C` was 83.6; that for `C=CCN1C[C@H](C)N([C@H](c2ccc(C(=O)N(CC)CC)cc2)c2cccc(OC)c2)C[C@H]1C` was 102; that for `C=CCN1C[C@H](C)N([C@H](c2ccc(C(=O)N(CC)CC)cc2)c2cccc(O)c2)C[C@H]1C` was 111.
The value for `O=[N+]([O-])O[C@@H]1CO[C@H]2[C@@H]1OC[C@@H]2O` [Isosorbide mononitrate] was 110; that for `CC1=CC(=O)c2c(O)cccc2C1=O` [Plumbagin] was 80.5.
Turning to `Clc1ccc(C2=CCCC3CCC2N3)cn1` (centres undefined) [UB 165 fumarate], the “mean cytoplasmic OPP incorporation” value was 97.7.
With `CC(C)N(CCC(C(N)=O)(c1ccccc1)c1ccccn1)C(C)C` (centres undefined) [Disopyramide] the figure was 108.
With `N=C(N)NN` [Aminoguanidine hydrochloride] the figure was 106.
With `C[C@H](N)[C@H](O)c1ccc(O)c(O)c1` [Levonordefrin] the figure was 105; with `CN1[C@@H]2CC[C@H]1C[C@@H](OC(=O)[C@H](CO)c1ccccc1)C2` [Hyoscyamine (Daturine)], 101; with `CN1[C@@H]2CC[C@H]1C[C@@H](OC(=O)[C@H](CO)c1ccccc1)C2` [Hyoscyamine (L)], 95.4.
With `CN(C)CCN(C)CCc1ccc(Cl)c(Cl)c1` [BD 1047 dihydrobromide], the “mean cytoplasmic OPP incorporation” value stood at 105.
The value for `O=C(O)Cc1cccnc1C(=O)O` [Homoquinolinic acid] was 104.
With `CN[C@@H]1C[C@@H](c2ccc(Cl)c(Cl)c2)c2ccccc21` [Indatraline hydrochloride] the figure was 104 ± 5.4.
As to `O=[N+]([O-])c1cc(O)c(O)c([N+](=O)[O-])c1`, the “mean cytoplasmic OPP incorporation” value was determined as 109.
The value for `C[C@H]([C@H](O)CCC(C)(C)O)[C@H]1CC[C@@]2(O)C3=CC(=O)[C@@H]4C[C@@H](O)[C@@H](O)C[C@]4(C)[C@H]3CC[C@]12C` [Ecdysone] was 109; that for `C[C@H](N)Cc1cnc[nH]1` [(S)-(+)-a-Methylhistamine dihydrobromide] was 104.
`c1ccc(CCCCN2CCC(c3ccccc3)CC2)cc1` [4-PPBP maleate]: the “mean cytoplasmic OPP incorporation” value is 102.
The value for `C=C(C)[C@H]1CN[C@H](C(=O)O)[C@H]1CC(=O)O` [Kainic acid] was 99.4; that for `COc1ccc(CN2CCNCC2)c(OC)c1OC` [Trimetazidine dihydrochloride] was 105.
With `COc1ccc2c(c1)c(CCN1CCOCC1)c(C)n2C(=O)c1cccc(Cl)c1Cl` the figure was 89.9.
The value for `c1cc2c(cc1[C@H]1OC[C@H]3[C@@H]1CO[C@@H]3c1ccc3c(c1)OCO3)OCO2` [Sesamin (Fagarol)] was 89.1; that for `CC(C)C(C(=O)OC(C#N)c1cccc(Oc2ccccc2)c1)c1ccc(Cl)cc1` (centres undefined) [Fenvalerate] was 109.
Take `O=C(N[C@H]1CN2CCC1CC2)c1ccc(Cl)cc1`: the “mean cytoplasmic OPP incorporation” value came out at 99.7.
The value for `CN1Cc2ccccc2[C@@H]2c3cccc4[nH]cc(c34)C[C@H]21` was 83.9; that for `N#Cc1ccc(N2CCN(C(=O)COc3ccc4[nH]cc(CCN)c4c3)CC2)cc1` [Donitriptan hydrochloride] was 98.2; that for `C[C@]12CC[C@H]3[C@@H](CCC4=CC(=O)CC[C@@H]43)[C@@H]1CC[C@@H]2O` [Nandrolone] was 98.1.
The value for `O=c1c2ccccc2[se]n1-c1ccccc1` [Ebselen] was 105 ± 2.2; that for `CCCN(CCC)C1Cc2cc(OC)c(OC)cc2C1` was 100; that for `O=c1ccc2cc(O[C@@H]3O[C@H](CO)[C@@H](O)[C@H](O)[C@H]3O)c(O)cc2o1` [Aesculin (Esculin)] was 103.
With `CN1CCCCC1Cn1cc(C(=O)c2cc([N+](=O)[O-])ccc2I)c2ccccc21` (centres undefined) the figure was 112; with `NCC(O)c1ccc(O)cc1` (centres undefined) [Octopamine hydrochloride], 98; with `O=C1Nc2ccccc2C2(CCN(CCc3ccc(C(F)(F)F)cc3)CC2)O1`, 105.
For the molecule `CC(N)Cc1cnc[nH]1` (centres undefined), the “mean cytoplasmic OPP incorporation” value is 101.
Consider `O=C(NCC1CCOCC1)c1cnc(Nc2ccc(Cl)cc2Cl)nc1C(F)(F)F`, for which the “mean cytoplasmic OPP incorporation” value came out at 102.
Take `COC(=O)[C@@H](N)CCCNC(=N)N[N+](=O)[O-]`: the “mean cytoplasmic OPP incorporation” value was 104.
The value for `COC(=O)[C@@H](N)CCCNC(=N)N[N+](=O)[O-]` [L-NAME hydrochloride] was 100; that for `CC(=O)O[C@H]1C[C@@H]2CC[C@@H]3[C@H](CC[C@@]4(C)[C@H]3C[C@H]([N+]3(C)CCCCC3)[C@@H]4OC(C)=O)[C@@]2(C)C[C@@H]1[N+]1(C)CCCCC1` [Pancuronium (Pavulon)] was 98.
On to `CC(=O)O[C@H]1C[C@@H]2CC[C@@H]3[C@H](CC[C@@]4(C)[C@H]3C[C@H]([N+]3(C)CCCCC3)[C@@H]4OC(C)=O)[C@@]2(C)C[C@@H]1[N+]1(C)CCCCC1` [Pancuronium bromide], for which the “mean cytoplasmic OPP incorporation” value was found to be 97.7.
The value for `O=C1C=CC[C@@H]2[C@H]3CCCN4CCC[C@@H](CN12)[C@@H]34` [Sophocarpine] was 98.2.
As for `S=C=Nc1cccc(C2(N3CCCCC3)CCCCC2)c1` [Metaphit], the “mean cytoplasmic OPP incorporation” value was found to be 102.
In the case of `CCCC(C)C1(CC)C(=O)NC(=O)NC1=O` (centres undefined) [Pentobarbital], the “mean cytoplasmic OPP incorporation” value was 103.
Consider `C[C@]12C[C@H]3S[C@H]3C[C@@H]1CC[C@@H]1[C@@H]2CC[C@]2(C)[C@@H](O)CC[C@@H]12` [Epitiostanol], for which the “mean cytoplasmic OPP incorporation” value was 87.1.
With `COP(=O)(OC)C(O)C(Cl)(Cl)Cl` (centres undefined) [Trichlorfon] the figure was 98.2; with `CNC1CC(N)C(O)C(OC2OC(CO)C(O)C3OC4(OC(C(N)CO)C(O)C(O)C4O)OC23)C1O` (centres undefined) [Hygromycin B], 102.
For `Cc1ccc2cc3c(ccc4ccccc43)c3c2c1CC3` [3-Methylcholanthrene], the “mean cytoplasmic OPP incorporation” value was 114.
With `C[C@H](CCC(=O)O)C[C@H](C)C[C@H](C)C(=O)/C=C(\O)[C@H](C)C[C@H](C)C/C=C/[C@@H](C)[C@@H](O)[C@@H](C)[C@@H](O)C[C@@H]1CC[C@@](C)([C@H]2CC[C@@](C)([C@@H](C)O)O2)O1` [Ionomycin] the figure was 83.6; with `C=CCN1CC[C@]23c4c5ccc(O)c4O[C@H]2C(=O)CC[C@@]3(O)[C@H]1C5` [Naloxone hydrochloride], 93.4 ± 4.1.
With `C[C@@H]1CC[C@@]2(OC1)O[C@H]1C[C@H]3[C@@H]4CC=C5C[C@@H](O[C@@H]6O[C@H](CO)[C@@H](O[C@@H]7O[C@@H](C)[C@H](O)[C@@H](O)[C@H]7O)[C@H](O)[C@H]6O[C@@H]6O[C@@H](C)[C@H](O)[C@@H](O)[C@H]6O)CC[C@]5(C)[C@H]4CC[C@]3(C)[C@H]1[C@@H]2C` [Dioscin (Collettiside III)] the figure was 50.2.

The record behind these values is the supplement of paper PMC8183993.
